# Measurements taken from the supplement of paper PMC3334620.
# Whole data set: some 33,000 sequences, median “E-score (-0.5 to 0.5)” near -0.041, cut for the highest 2% near 0.37. The list shows a part of the results.
# Target: T1, Ecm22 (UniProt Q05958)
# T1 sequence: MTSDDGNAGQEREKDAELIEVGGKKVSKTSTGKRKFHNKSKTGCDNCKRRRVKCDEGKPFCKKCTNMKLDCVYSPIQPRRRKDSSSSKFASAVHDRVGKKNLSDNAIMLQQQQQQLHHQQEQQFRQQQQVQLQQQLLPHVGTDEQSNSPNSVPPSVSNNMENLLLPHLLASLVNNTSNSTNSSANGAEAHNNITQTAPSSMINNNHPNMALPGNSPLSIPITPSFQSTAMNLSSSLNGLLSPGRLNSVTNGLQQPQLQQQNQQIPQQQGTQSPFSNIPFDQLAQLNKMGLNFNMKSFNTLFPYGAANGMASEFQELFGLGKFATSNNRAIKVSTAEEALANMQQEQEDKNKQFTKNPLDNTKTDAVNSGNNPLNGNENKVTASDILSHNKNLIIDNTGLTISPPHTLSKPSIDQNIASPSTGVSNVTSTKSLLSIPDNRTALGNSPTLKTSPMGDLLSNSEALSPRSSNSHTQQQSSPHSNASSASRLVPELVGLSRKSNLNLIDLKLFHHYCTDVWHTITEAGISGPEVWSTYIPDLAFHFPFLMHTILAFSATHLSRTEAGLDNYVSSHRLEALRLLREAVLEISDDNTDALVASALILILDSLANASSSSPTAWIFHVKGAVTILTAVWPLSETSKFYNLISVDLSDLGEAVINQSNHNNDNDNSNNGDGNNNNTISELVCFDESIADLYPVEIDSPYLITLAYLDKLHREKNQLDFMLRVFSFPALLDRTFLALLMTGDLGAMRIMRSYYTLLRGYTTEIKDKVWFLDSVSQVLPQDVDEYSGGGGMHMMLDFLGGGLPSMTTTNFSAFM
# Assay: PBM E-score (8-mer binding enrichment) (E-score (-0.5 to 0.5)); higher = stronger / more preferred TF binding; most listed sequences are background and not binding sites
# Conditions: protein concentration: 200 nM; construct: GST-full length
# Description: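 Universal 'all 10-mer' protein binding microarrays (Agilent AMADID 015681) probed with GST-tagged S. cerevisiae TFs (full-length or DBD) made by in vitro transcription/translation (PURExpress), about 100-200 nM. Bound TF was detected with fluorescent anti-GST. Each ungapped 8-mer (which stands for itself and its reverse complement) is scored by the PBM enrichment score (E-score), a modified Wilcoxon-Mann-Whitney statistic from -0.5 to +0.5, computed with the Universal PBM Analysis Suite. Scale: above 0.35 generally sequence-specific binding.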
row,Sequence,PBM E-score
1,ACCAGTAA,-0.0467
2,ACATTACA,-0.0498
3,AGCAACGC,0.0942
4,AAAGGCCA,-0.183
5,GATCCATA,0.0662
6,ACTGACTC,-0.141
7,TGCTTGAA,0.085
8,ACCCGGTA,0.155
9,GAACGCCA,0.0205
10,CCTCTTGC,-0.16
11,GAGGTTCC,0.083
12,CTGGGTTA,-0.169
13,CAAGTGAC,-0.132
14,CTGAGGTC,-0.129
15,ACGACCAC,0.35
16,AGAGGCGC,-0.0791
17,ACGCCCCT,-0.107
18,GGCTAGAA,0.0305
19,AGAGTGAA,-0.0771
20,CGGCGCCC,-0.0635
21,GAGCTCAA,0.0703
22,CGGCTCTC,-0.0678
23,ATCGGGGA,-0.0445
24,AGCGGATA,0.136
25,CTAACAAG,-0.0999

row,Sequence,PBM E-score
1,ACGTTCCT,0.302
2,GGAATACA,-0.045
3,ACCAAGAG,-0.279
4,AGGATCCT,0.134
5,CTGTACAG,0.0526
6,CTTTGGGA,-0.185
7,CGAAGCTA,0.207
8,GCAACAAA,-0.00069
9,CCGACAGA,0.224
10,CGCCTCTA,-0.0424
11,CCCCACAA,-0.197
12,ACATTACG,0.151
13,ATGCTTGC,-0.111
14,CCCTGCGC,-0.2
15,AAACTATG,-0.237
16,ACGTTAAA,0.213
17,ACTGATTA,-0.0946
18,TCGTGTCA,0.168
19,CGTGCTTC,0.0165
20,CGTTAAAG,0.33
21,CCACGTAG,-0.0926
22,AAGACCAA,-0.0667
23,AAGGGGCG,-0.306
24,GCGCTTCA,-0.0388
25,GAGACTGC,-0.128

row,Sequence,PBM E-score
1,ATCACCCC,-0.154
2,AACTTATC,-0.0669
3,GCGCGTCC,-0.0857
4,CTAAAAAC,0.0187
5,CCTAGCCG,-0.208
6,AGCCCAGA,-0.163
7,ACAACAGA,-0.229
8,ATAGGCAG,-0.103
9,CGTACTTC,0.344
10,TACCCGAA,0.236
11,CGCACCTA,0.0572
12,ACATATCG,0.117
13,GAGGTTCA,0.025
14,TGAGAAAA,-0.205
15,GCACTGCC,-0.0432
16,CATTTCTC,-0.0553
17,AACCCCCA,-0.325
18,AAACCGAT,0.0836
19,CAGCGGCC,-0.186
20,CGTTATAG,-0.0415
21,ATGTGGTG,0.0867
22,GCGGCTCA,-0.0342
23,ATTCCAAA,-0.141
24,CGATAGAG,0.166
25,CGCACTCA,0.0863

row,Sequence,PBM E-score
1,GGCCGGCA,-0.154
2,TGACCACA,-0.287
3,ACTTCTAG,-0.222
4,AAACATAG,-0.0903
5,AAGTGCGG,-0.237
6,CCATTGTC,-0.211
7,AGCCGTAG,0.0779
8,ATTGGGGG,-0.243
9,ACATGTTC,-0.0332
10,GCCAGTAA,-0.051
11,ACAATAGA,-0.00658
12,AATTGTGC,0.0283
13,CGGCCGCC,-0.0473
14,CCTATCGA,-0.186
15,GAGGCCGA,0.0575
16,CGTCAGGC,-0.163
17,CTCCCACC,-0.101
18,CGTCTAGA,0.0727
19,ACTTTATG,-0.0212
20,GCGTACGA,0.448
21,TAATAGGA,-0.0272
22,CGTGCTCA,-0.0532
23,CCACGACG,-0.116
24,GATGCCAA,-0.112
25,AGGGTTTA,-0.0818

row,Sequence,PBM E-score
1,TCTTTAAA,-0.0798
2,ATTGAGGG,-0.259
3,ATAAGTAT,0.142
4,CCGCTCCC,0.131
5,AGACTCAC,-0.22
6,CAGGTTAG,-0.171
7,CTTCGTTA,0.303
8,ATATCTAG,-0.0386
9,ATTCGCCG,0.19
10,CGCGTAAG,0.165
11,CGACACCA,0.148
12,CAGCGCCA,-0.179
13,GTAGCGAA,0.287
14,CAATTATC,0.0964
15,ATCCCCCA,-0.338
16,GAACGCCC,0.0215
17,GCCTAAGC,-0.232
18,ACTGGAAG,-0.211
19,AATTTGGC,-0.0443
20,ACGAGCGC,0.327
21,ATGTGATA,0.045
22,AATTACGT,0.0683
23,AAGACGGG,-0.114
24,AGACGGAC,-0.202
25,GACCGTAA,0.283

row,Sequence,PBM E-score
1,CAGCAGTA,-0.132
2,GCATTACC,-0.17
3,CAGCTCTC,-0.204
4,TAGGACTA,-0.25
5,AAATCTTG,-0.173
6,AACGTCGA,0.178
7,CAAACGTG,0.054
8,TAGCATAA,-0.00664
9,CACAATAG,-0.0503
10,GGCCGGAA,-0.17
11,ACGGTAGC,-0.00152
12,CTCGCTTC,0.227
13,ACATATGG,-0.024
14,CTACAACC,0.0766
15,GGCGCAGA,-0.15
16,ATGATGGG,-0.313
17,GTTTGCCA,-0.0654
18,AAACCCAT,-0.00776
19,ACGAGACG,0.394
20,AACCGTGT,-0.0312
21,AGTGCCGG,-0.131
22,ATAGCAAG,-0.182
23,AGCTTGAT,-0.191
24,CACTAAGC,-0.0471
25,GCGTCAAC,-0.0774

row,Sequence,PBM E-score
1,GTTAGTCA,0.0344
2,ACTGCACC,-0.121
3,CACGCAAG,-0.131
4,CGGGGACA,-0.131
5,CATTGAGC,-0.228
6,TAGTCAAA,-0.0457
7,TTACGGAA,0.266
8,CGAAGAGC,0.181
9,ACGGTCCT,-0.195
10,CGATCTTA,0.14
11,CTTAAGAC,-0.129
12,ATGCGCTA,-0.0545
13,CCGCGTAA,0.08
14,CTGAGGCA,-0.207
15,CAACTCAA,-0.131
16,CGTAAAAG,0.367
17,CGATGCGC,0.164
18,AACGATAT,0.408
19,AAAATCCG,0.0356
20,ATACTATA,0.123
21,AAAATCGA,0.0644
22,GCGTCTGA,-0.112
